# B1: TPI K56E mutant, ectopically expressed with a Flag or an HA tag (enzyme)
# chain: not shown
# notes: triosephosphate isomerase with K56E (mimic of constitutive malonylation); no chain bears both tags; also called Flag-tagged K56E; HA-tagged K56E; source: transfected, in lysate: HK2-10-derived CDCP1+ cells; HEK293T cells
# Biological target: the molecule itself
# Assay: cross-linking; Flag-tagged TPI or K56A/K56E mutants expressed in HEK293T cells, treated with or without 0.025% glutaraldehyde; monomer and dimer by western blot
protein,measurement,value
B1,stoichiometry N,2
